Assay results reported in the supplement of paper PMC10126150.
Sequences with one replicate were seen in a single cluster, so their values are uncertain.

Tested on: ATP
Assay: switch fluorescence ratio, 500 uM ATP over buffer (Cy3 cluster intensity, sum of 5 cycles each) (fold (ratio)); higher = stronger signal-on switching upon ATP binding; sequences stand for … in TCGTCGGCAGCGTCAGATGTGTATAAGAGACAGTTTTTTTTTTTTTTTTTTTTTTTTT…TC
Conditions: aptamer strand: ATP DNA aptamer (quencher-CACCTGGGGGAGTATTGCGGAGGAAGG + anchor), 100 nM annealed; ATP concentration: 500 uM; one replicate
In short: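 Clusters carrying Cy3-labelled switching strands on a modified Illumina MiSeq flow-cell were annealed to 100 nM quencher-labelled ATP aptamer and imaged in selection buffer. They were imaged again after 15 min with 500 uM ATP at 22 °C, over five buffer/ATP cycles with NaOH stripping and re-annealing in between. For each cluster, the fluorescence ratio is the summed Cy3 intensity of the target cycles divided by that of the buffer cycles, averaged per switch-domain sequence. Clusters outside 100-1000 RFU were left out.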
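Also: ATP exposure 15 min at 22 °C before imaging.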

| Sequence | switch fluorescence ratio |
| --- | --- |
| GTATGAATCA | 0.994 |
| GTATGACAAG | 1 |
| GTATGAGGCC | 0.947 |
| GTATGAGGG | 0.994 |
| GTATGC | 0.982 |
| GTATGCTAGA | 0.957 |
| GTATGGAGAC | 1.03 |
| GTATGGTGTC | 0.986 |
| GTATGTAATG | 0.96 |
| GTATGTCGTA | 0.954 |
| GTATGTGATG | 0.957 |
| GTATTAGTTT | 1.01 |
| GTATTGAAGC | 0.981 |
| GTATTGCGAC | 0.978 |
| GTCAAAAAAT | 0.966 |
| GTCAAAGCGT | 1.03 |
| GTCAAAGTGC | 0.986 |
| GTCAATAAAG | 0.999 |
| GTCACACAC | 1.36 |
| GTCACGATAC | 1.93 |
| GTCACTGGCG | 1.04 |
| GTCACTGGGG | 1.06 |

| Sequence | switch fluorescence ratio |
| --- | --- |
| GTCACTTGTG | 0.969 |
| GTCAGAATAA | 1.01 |
| GTCAGATCG | 1.07 |
| GTCAGCATTA | 1.22 |
| GTCAGCGGGG | 0.951 |
| GTCAGGAGTG | 0.96 |
| GTCAGGCAGT | 1.03 |
| GTCAGGCTTA | 1 |
| GTCAGGTTTC | 1.03 |
| GTCAGTTTCA | 0.967 |
| GTCATCCCCT | 1.04 |
| GTCATTGGAA | 1 |
| GTCATTGGG | 0.959 |
| GTCCAAAACA | 1.02 |
| GTCCCAGACT | 0.974 |
| GTCCCCATTT | 1.12 |
| GTCCCGAAAG | 1.16 |
| GTCCCGGGGG | 1.06 |
| GTCCGAGAT | 1.04 |
| GTCCGAGCCG | 0.96 |
| GTCCGGATTC | 0.996 |
| GTCCGGGGTG | 1.26 |

| Sequence | switch fluorescence ratio |
| --- | --- |
| GTCCGTCAAA | 1.08 |
| GTCCTTGCTT | 1.02 |
| GTCCTTTGGG | 1.65 |
| GTCGACGGGT | 0.951 |
| GTCGAGACAG | 0.975 |
| GTCGAGACGC | 1.02 |
| GTCGAGAGCG | 0.983 |
| GTCGCCCTAT | 0.994 |
| GTCGCCTAGG | 1.13 |
| GTCGCTATTT | 0.973 |
| GTCGGAAATC | 0.981 |
| GTCGGAAGGT | 0.962 |
| GTCGGGCCTC | 0.994 |
| GTCGGGTTCG | 0.961 |
| GTCGTAAACC | 1.03 |
| GTCGTAACGG | 1.05 |
| GTCGTATTGC | 1.03 |
| GTCGTTGGAT | 1.03 |
| GTCTACAGGT | 0.983 |
| GTCTAGAGCC | 0.994 |
| GTCTATTGGT | 0.975 |
| GTCTCCAACA | 1.01 |

| Sequence | switch fluorescence ratio |
| --- | --- |
| GTCTCCGAGT | 1.16 |
| GTCTGAGGAC | 0.989 |
| GTCTGGTATG | 0.963 |
| GTCTGTAAGG | 1.01 |
| GTCTGTTTTG | 0.982 |
| GTCTTAGATG | 1.05 |
| GTCTTAGTGT | 0.967 |
| GTCTTATAGG | 0.956 |
| GTCTTATCTG | 0.961 |
| GTCTTTAGAG | 1 |
| GTCTTTAGCG | 0.988 |
| GTCTTTTTTC | 0.959 |
| GTGAAGGAG | 0.991 |
| GTGAAGTTGT | 0.933 |
| GTGAATGGAC | 0.982 |
| GTGACACGA | 1.02 |
| GTGACATTGG | 0.987 |
| GTGACGTATG | 1.03 |
| GTGACTGGGG | 1.02 |
